# Measurements reported in PubChem BioAssay AID686978 (National Center for Advancing Translational Sciences (NCATS), 2013).
# Hit rate of the full screen: of about 420,000 compounds, about 64,000 (15%) were called active. This list was built around the results that the source calls inconclusive (neither active nor inactive); the mix of calls is not that of the screen. Calls come from the whole dose curve; as a rule, active = well fitted inhibition curve with a large enough effect; inconclusive = small, poorly fitted or top-dose-only effect; inactive = flat fitted curve, though single readings scatter. Potencies of inconclusive entries are left out as doubtful fits.
# Experiment: qHTS for Inhibitors of human tyrosyl-DNA phosphodiesterase 1 (TDP1): qHTS in cells in absence of CPT; note: nearly all actives have a fitted effect of over 55% in size
# Conditions: DT40 Tdp1-/- hTDP1 cells, no CPT, ATP luminescence, 48 h; activity change, negative = growth inhibition: at 46.2 µM (top of the series)
# Method in brief: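 Growth kinetics read by CellTiter-Glo luminescence after ≥48 hr at 37 °C. Cells: DT40 Tdp1-/- stably carrying human TDP1, 400 per well, compound exposure in the absence of CPT (DMSO vehicle).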
# % is set by controls: 0 for no effect and ±100 for the full control effect; potency is the fitted concentration of half-maximal effect; tags give direction and shape of the fitted curve.
SMILES,Potency,"activity change, negative = growth inhibition"
CCC12CN3CC(CC)(CN(C1)C3c1ccc(OC(C)C)cc1)C2=O (stereo unspecified),"inconclusive [inhibitor, partial curve, poor fit]",–
C=C(Cl)COC(=O)C1C2C=CC(C2)C1C(=O)O (stereo unspecified),–,inactive: 0.932%
COC(=O)c1ccc(Nc2nc(C)cc(=O)[nH]2)cc1,–,inactive: -11.1%
COc1cccc(OCCN2CCN(c3ncnc4c3cnn4-c3ccccc3)CC2)c1,"inconclusive [inhibitor, single point]",–
CC(=O)Nc1ccc(NC(=O)c2csnn2)cc1,–,inactive: -6.24%
COc1cccc(C2=CC(c3cccc(OC)c3OC(F)F)n3nnnc3N2)c1 (stereo unspecified),"inconclusive [inhibitor, single point]",–
COc1ccc(C(C[N+](=O)[O-])C2(c3ccc(OC)c(OC)c3)C(=O)c3ccccc3C2=O)cc1 (stereo unspecified),active: 4.11 µM,–
CCC1CCCCN1CCCNC(=O)C1CCCN(S(=O)(=O)N2CC(C)CC(C)C2)C1 (stereo unspecified),–,inactive: 17.2%
Cc1ccccc1CN1CCN(c2nc3ccccc3s2)CC1,–,inactive: -15.2%
O=C(CCCCCN1C(=O)c2ccccc2C1=O)Nc1ccc2c(c1)OCCO2,"inconclusive [inhibitor, partial curve]",–
CCOC(=O)c1c(NC(=O)CN2C(=O)C(=O)N(CC(C)C)C2=O)sc(C)c1CC,–,inactive: -16.4%
COc1cccc(NC(=O)CSc2nnc3ccc(-c4ccncc4)nn23)c1,"inconclusive [inhibitor, single point]",–
O=C(NCc1ccc(Cl)cc1)C(=O)NCC(c1ccc2c(c1)OCO2)N1CCOCC1 (stereo unspecified),"inconclusive [inhibitor, partial curve]",–
O=C(COc1ccc2ccc(=O)oc2c1)Nc1ccc(CCO)cc1,–,inactive: -5.06%
CS(=O)(=O)N(CC(=O)NC1CC1)C1CCCCC1,–,inactive: 1.67%
C#CCNC(=O)C1=C[C@H](c2ccc(C(F)(F)F)cc2)[C@@H](CCCO)[C@H](OCC)O1,"inconclusive [inhibitor, single point]",–
COc1ccc(OC)c(NC(=O)CSc2nnc(Cn3nnc4ccccc43)n2C)c1,–,inactive: -5.47%
COc1cc(C(=O)OCC(=O)N2CCCC2)cc2c1OCCO2,–,inactive: -2.64%
COc1cccc(CCNC(=O)CCc2nnc(Cc3cc(OC)ccc3OC)o2)c1,–,inactive: 12.7%
Cc1ccc(C)c(S(=O)(=O)N2CCN(C(=O)Cn3c(C(F)(F)F)nc4ccccc43)CC2)c1,"inconclusive [inhibitor, single point]",–
CN1C(=O)C(C)(C)c2cc(S(=O)(=O)N3CCC(C(=O)NCc4ccc(F)cc4)CC3)ccc21,"inconclusive [inhibitor, single point]",–
